Data: the supplement of paper PMC10681739
The full ranking holds about 4,100 sequences; the median of “arbitrary fluorescence units” is about 780, and the highest 2% start at about 22,000. This is one part of the list.

biological target: T1, ETS1 (UniProt P14921); experiment: ETS1 binding intensity (PBM fluorescence), ETS1 alone (arbitrary fluorescence units); higher = stronger binding; details: ETS1 concentration 1 nM; RUNX1 concentration 0 nM
T1 sequence: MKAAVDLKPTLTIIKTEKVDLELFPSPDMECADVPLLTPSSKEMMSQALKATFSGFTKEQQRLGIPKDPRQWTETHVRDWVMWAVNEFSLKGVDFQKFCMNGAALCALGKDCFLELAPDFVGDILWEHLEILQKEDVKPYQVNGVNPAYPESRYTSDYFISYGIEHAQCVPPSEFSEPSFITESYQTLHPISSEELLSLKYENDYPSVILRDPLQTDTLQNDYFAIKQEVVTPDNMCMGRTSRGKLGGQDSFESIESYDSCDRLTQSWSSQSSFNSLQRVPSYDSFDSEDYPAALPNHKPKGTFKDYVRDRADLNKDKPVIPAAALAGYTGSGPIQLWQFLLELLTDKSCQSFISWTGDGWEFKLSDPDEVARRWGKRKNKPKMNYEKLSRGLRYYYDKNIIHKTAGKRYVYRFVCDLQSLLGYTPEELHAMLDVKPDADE
Procedure, shortened: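 Full-length recombinant human ETS1 (1 nM, no RUNX1) was incubated, per standard PBM protocols, on double-stranded Agilent 4 × 180k arrays of 36-bp genomic probes whose RUNX1 partner site was mutated. Bound ETS1 was detected with anti-ETS1 antibody (Cell Signaling Technology 14069) and Alexa488-conjugated secondary antibody, then scanned on a GenePix 4400A. Binding level is spot fluorescence intensity, summarised over replicate spots (four printed per sequence) and not normalised.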

Sequence	ETS1 binding intensity
CGGTCTGACCCCAAACTCTGCCTTCCGGCAAGGCTG	936
TGGCTACCCGGAAGGCGCGTTGGCTGCGCCTACGCA	749
TCAAAAACCTTAGCACTTCAGCCGGAAACTACAGGA	704
ACAGATGGTCCGGAACTTCAGAAAAGCACTCATTGT	566
CCCAATTTCCTTTGCTCTGCTGTCTGCCAACCCCAA	3560
GAGAAGAACCCCAATTCAAAGTGATGGGGGAAATGG	435
AAGGGCCGCTCTGGTGTCCGGATGCTGGGACGGTGC	476
CCGTAAGCGCTCTTTCCCCGAGCGGAAGCACAATGC	869
GCTCTGCATCTTTTGGGCTAAGGAAGCAGGTCCCAC	358
CTGTCGTGACCCGGCAGGAGTAGCGTCGGAAGCAAT	403
CCCGGCGGAACTCGCTGTCCCGGCAGGCACCGTGGC	632
AAAGCCAACTACAACATGAAGGGGAAGTACACAATA	463
GAAGGAAGTGGAGACAGTAAGGGGAAACTACAAACC	993
GCACGCCTGAGGGTGCTCATGGGAAATGTAGTTTTT	349
AGAAGCGGCGCCCGCCCCCGTTTCCTCTCTTCCTCC	715
ATTAAAGACTTCCGTGCAAGAGCACAGCTGCCTGAC	4380
GCAAAGTTCTGGGAGCCCTACTTCCTGCGGAGCCCC	2310
GCGGGCGCACTTCGGGGGCCAAGGAAGGAAGAAATG	412
TTGACCCGGACGTGGACAAAAGACAGCAAAGGACGC	1080
TCAGTTTCCTCATCAGGGGCAAGGGCACCACCTCGG	2048
CCAGCGCCGAGGTACAACCTCGGCACTTCCGCCCGC	2290
TTTACGGCGCTAGTGCTCTGGTCACCGGAAGTCCCT	2070
TTATCTGTCGTTCTTTTATGGGGTGGGCTTCCTCTG	503
AGTCTTAGCACCTCTGAGGATGACTGAGCGGAAGAG	449
CCCAACCATTTCCGCCACACCTCCAACCTACTGCCG	12000
ACTCGCGCACCCCCAGAGTTCCCCTTCCGGCAGTGG	1130
CCCTTGCCTGCAGGACGGCGGCCCGGAAGTGACGTA	2590

Sequence	ETS1 binding intensity
TCAGCAAGACCCCAAACCCACCGGAAAGAAGAAACT	820
GCCTCCTCACCCCAGTGAGCACATCCCCTTGGGTTG	302
TTTTATCTTCCGCGAGCCCTCATCCCTCAACTCTTC	691
TTCTGAGGAAGTCCTTGGCTGAGGTAGGGCCGAAGA	439
AATCGCGCAGTTCCGCAGCTGCCGCCCCACGAACGC	570
GAGGGGTGGGGGAGGAAGGCTGCGGATTCTGCTGGG	1220
TCTGTGCGAGCTGCAGCTCTCAGACTCAGGATGAGG	309
CGTGTTCCGTAAGCACCACCCCTCTTCCTGTTTCTC	1610
GTGAGCTTCCCGGCGCGCGGGGGGCGGTGCGCCTTC	797
ACACTGGGAAGTGCCATGGCCAGCGATTTCTTGCAA	366
CAACCCGGAAGCACTAACGGAGAAATCGCAACTCGG	2860
TGCGCCGCTGCGCCCCAGCCTCCGGAAGACAGGGGA	398
CTGCAGCCGAGGTCTCCCGGCGGAAGCTCTTCACTT	519
TTCATAAAGGAGAGGAAACCTGACCTCGACAGAAAG	451
CTGACACTTCCGGGAGCCTTGTAGGCACAGGAATCA	20700
ACCGTTCTCCGGCCGCCCTCGGGCACTTCCGGTCCT	10200
TAAAACCAAACTACAGATGACACATTTCCTTTCCAC	613
GCATTTTGGTGGAAGACGCGCGCCGGATCTCTCAGG	356
GTAGGGGAGGGACCCCAGGGAGGCGGAAGTCCTTGT	873
GGAGCATCCCGGAAGTCGTCACTTCGGCCGCTCCCG	12200
TTTCTTCGTGGGAGGGAGTGGGGGAAGTTGACTGAT	984
TCCTTATAAATCCACCTATATCCGTTCTCATACACA	2020
GTAAAATGCGCTCGGGTAGAAACCTACTTCCGGTCC	13500
CAGCTTTCCGGCCTGCAGCACAGGCAATGTGATTTT	6830
CTCCTTCCTGTGTGTTACTCTTAAAAATCACAGAGG	7320
GTGGGGCAGGATGTGCTTGCCTGGCTGCTGTTGGAC	2130
GTGCGGAAGCGCGCCAAGGCACGTGGCCGCTTCTGT	1900

Sequence	ETS1 binding intensity
TCGCTAGCGACAGCCATTTTTGTACCCGGGAAGCCC	335
GCAGTTCATACCAAAAAACCCATCGTTTCCTGCAAC	601
CTCTTGGCGGACGTTCCACATTGCCACTGACTTTGT	616
GGGCGATTACCGAGGCCCGCCACCGCCGGAAGGGTG	333
GGAGATCCGGCAAGGCTCCATCCAGCGCTGGCGACA	2590
TTCCAGACTACAAGAGCTTCCACTTCCTTTCTCTTG	1690
TGTGTAGGTTTCTGGACTATGGGGCTTCCTGGAAGT	522
CTACCTCCTGAGGTGACTCCACCCCTTCCTGCATCA	450
GGCTCCCTCGCGAACACCACGACTTCCCTCTTCCCT	431
ACCCTCTGTGATTTAGGCTAGCGGGCTTTCCGCCTA	438
GGGTGGGGCTCTGGGGCCGGGAAGTTGCAGAGGGCT	573
GCGATTGGGGTTCCCGCCGTATTTCCCGTTCCCCAT	795
TTCTTTCTTTGACAACAGATCACTTCCTCAGAAGCA	752
GGCCGAGGACTGCAGAGCCCCGGAAGCCTAGCCCCA	449
GGGCTTCGGCGCTGGAATTGGACCAATCCGGAATCG	394
CTGACGCATTTCCGGCCTTTGGGGTTGATCGGTCAT	26200
AGTTACAGAACCTCACTGGGGCCACATCCTCTCCAG	482
CGCCGTAGGAGGAAGCCGCGGCCGAAACGCTCCTGG	371
AACACTACACATCCTCTCTTGTTGTAGCTGCTGAAC	3140
CGGTGAGCTGGGGTTTAACTTCCTTATAGCAGGTTG	551
CAGCCAGCGCACCTCCTCCTCAGCTTCCTCTGGTGC	620
TTAAGGAGCTTCCGGGGCCGCGCGTAGAGGCGGGTG	5170
GCAGAAAGGCGCTGTCCCTCTGCGGAAGGCGCCGCT	310
GCCTTTGGAAACTACAGCTTCCACTTCCGCTGAGGG	4170
GGGTCCTTCCGGGTTTTGTGTCGAATCTACGGCGGC	7400
CCACTTATCGCGAGAACGCGGAGTCCTGCGGATGGC	403
